The RNAGym collection of RNA variant scans (doi:10.1073/pnas.2313332121)
Variants at the floor of the assay are shown more often than the library holds them.

B1: TPR 5TU (parent)
chain: GGAUCUUCUCGAUCUAACAAAAAAGACAAAUCUGCCACAAAGCUUGAGAGCAUCUUCGGAUGCAGAGGCGGCAGCCUUCGGUGGCGCGAUAGCGCCAACGUUCUCAACUAUGACACGCAAAACGCGUGCUCCGUUGAAUGGAGUUUAUCAUG

Variants of: B1
Test: polymerase ribozyme fitness, log enrichment relative to wild type (log ratio); higher = more active; in vitro selection for triplet polymerase activity
Procedure, shortened: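 To select mutant libraries of each subunit of a heterodimeric triplet polymerase ribozyme, built by PCR and transcribed, each was annealed with a biotinylated primer, partner subunit and triplets, then incubated frozen at −7 °C. Extended constructs were gel-excised, captured on streptavidin beads and amplified by RT-PCR, in one round carried out in triplicate. Illumina sequencing of input and output libraries kept genotypes with ≥10 input reads and ≥1 read per output. Fitness is the base-2 logarithm of genotype enrichment relative to wild-type enrichment, from inverse-variance-weighted replicate averages.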

Question: For U31A U53A C95U A119G, which “polymerase ribozyme fitness (log ratio)” value is on record?
Answer: The value was -0.866.

Question: Which “polymerase ribozyme fitness (log ratio)” value does the source give for C32U C54A C85A G88A A137U here?
Answer: The value was ≤ -4.2.

Question: For C32U G84A, which “polymerase ribozyme fitness (log ratio)” value is on record?
Answer: The value was -2.55.

Question: For C32U A49C U55A G81A C85U U90A A106U A121U C125A, which “polymerase ribozyme fitness (log ratio)” value is on record?
Answer: The value was ≤ -4.2.

Question: With A30U C32G U44A G62C as the variant, how does the “polymerase ribozyme fitness (log ratio)” value read?
Answer: Its value is ≤ -4.2.

Question: For U31A U45A C76U C85U C93U G136U A150C, which “polymerase ribozyme fitness (log ratio)” value is on record?
Answer: The value was ≤ -4.2.

Question: Which “polymerase ribozyme fitness (log ratio)” value does the source give for C32G A40C C54G U77C A138G here?
Answer: Its value is ≤ -4.2.

Question: With A30U A41C C96G G100U as the variant, how does the “polymerase ribozyme fitness (log ratio)” value read?
Answer: The value was ≤ -4.2.

Question: For A30G U44A U61A C95U U102C C103A U109G G136U, which “polymerase ribozyme fitness (log ratio)” value is on record?
Answer: Its value is ≤ -4.2.

Question: For C32U A47G G59C G100A, which “polymerase ribozyme fitness (log ratio)” value is on record?
Answer: The value was ≤ -4.2.

Question: With U31G A37U A41C C75U C76G C96U C105U G117U G133U U134C as the variant, how does the “polymerase ribozyme fitness (log ratio)” value read?
Answer: Its value is ≤ -4.2.

Question: Which “polymerase ribozyme fitness (log ratio)” value does the source give for A30U G83U G141U here?
Answer: Its value is -3.89.

Question: For A30U C32G G34U G81A C93A G136C, which “polymerase ribozyme fitness (log ratio)” value is on record?
Answer: Its value is ≤ -4.2.

Question: For C32G U56A G94A C108U G124C U145A, which “polymerase ribozyme fitness (log ratio)” value is on record?
Answer: The value was ≤ -4.2.

Question: For U31A C43A G83A C99A, which “polymerase ribozyme fitness (log ratio)” value is on record?
Answer: The value was ≤ -4.2.

Question: Which “polymerase ribozyme fitness (log ratio)” value does the source give for U33A G80A here?
Answer: The value was -3.68.

Question: With U33C C75G G86A C87A C149G as the variant, how does the “polymerase ribozyme fitness (log ratio)” value read?
Answer: The value was ≤ -4.2.

Question: For U31G C123G A142G, which “polymerase ribozyme fitness (log ratio)” value is on record?
Answer: Its value is -1.12.

Question: For C32U G62A C76G G84U C116U G140A C149U, which “polymerase ribozyme fitness (log ratio)” value is on record?
Answer: The value was ≤ -4.2.

Question: With C32G C75A G84C as the variant, how does the “polymerase ribozyme fitness (log ratio)” value read?
Answer: The value was ≤ -4.2.

Question: For U31C U53G, which “polymerase ribozyme fitness (log ratio)” value is on record?
Answer: The value was -0.735.

Question: For C32G A49U G74U U77G A89U, which “polymerase ribozyme fitness (log ratio)” value is on record?
Answer: The value was ≤ -4.2.

Question: Which “polymerase ribozyme fitness (log ratio)” value does the source give for U31A U56A U127C here?
Answer: The value was -1.37.

Question: For C32G G48C C51U G59A C72U G88A G126U, which “polymerase ribozyme fitness (log ratio)” value is on record?
Answer: The value was ≤ -4.2.

Question: Which “polymerase ribozyme fitness (log ratio)” value does the source give for C32G C43U C93A A107G here?
Answer: The value was ≤ -4.2.

Question: Which “polymerase ribozyme fitness (log ratio)” value does the source give for U33G G80U G84A A142C U148C U151G here?
Answer: The value was ≤ -4.2.

Question: Which “polymerase ribozyme fitness (log ratio)” value does the source give for C32G G59C G71C C85A G88A U151A here?
Answer: Its value is ≤ -4.2.

Question: Which “polymerase ribozyme fitness (log ratio)” value does the source give for C32A C69U C85G C87U here?
Answer: The value was ≤ -4.2.

Question: With U31C A121C U134A as the variant, how does the “polymerase ribozyme fitness (log ratio)” value read?
Answer: Its value is -1.76.

Question: Which “polymerase ribozyme fitness (log ratio)” value does the source give for U31G G48C A49U C51U C69U G84C U127C here?
Answer: Its value is ≤ -4.2.

Question: For C32A G84U A97G C131U U139C, which “polymerase ribozyme fitness (log ratio)” value is on record?
Answer: The value was ≤ -4.2.

Question: With C32A A41C A66C C95U C99G G117U A150C as the variant, how does the “polymerase ribozyme fitness (log ratio)” value read?
Answer: The value was ≤ -4.2.

Question: For C32G A37U G59A G83U C87U, which “polymerase ribozyme fitness (log ratio)” value is on record?
Answer: Its value is ≤ -4.2.

Question: Which “polymerase ribozyme fitness (log ratio)” value does the source give for U31C A40G A41C G59A C93U C99A G100U U101G G124C C125U G141C U146A here?
Answer: Its value is ≤ -4.2.

Question: With A30U C54A A97U C116U G117U as the variant, how does the “polymerase ribozyme fitness (log ratio)” value read?
Answer: The value was ≤ -4.2.

Question: For U31C A37U U82G C85U G94C U148A U151C, which “polymerase ribozyme fitness (log ratio)” value is on record?
Answer: Its value is ≤ -4.2.

Question: For A30U C54A C76A C87G G92A G143C, which “polymerase ribozyme fitness (log ratio)” value is on record?
Answer: Its value is ≤ -4.2.

Question: With U31A C32U A39C C85A C114U A150C as the variant, how does the “polymerase ribozyme fitness (log ratio)” value read?
Answer: The value was ≤ -4.2.

Question: Which “polymerase ribozyme fitness (log ratio)” value does the source give for A30U C57A A73G G81C G92U G141A U148A here?
Answer: Its value is ≤ -4.2.

Question: Which “polymerase ribozyme fitness (log ratio)” value does the source give for U33G G42U G81C C95U U139A G140C here?
Answer: The value was ≤ -4.2.

Question: For C32G A52U C57A U144G U146C, which “polymerase ribozyme fitness (log ratio)” value is on record?
Answer: Its value is ≤ -4.2.

Question: Which “polymerase ribozyme fitness (log ratio)” value does the source give for U33A C95A G126C A138C U145A here?
Answer: The value was ≤ -4.2.

Question: For U33C G34U G42A C43U U55A C76A C93U G143A U144A, which “polymerase ribozyme fitness (log ratio)” value is on record?
Answer: Its value is ≤ -4.2.

Question: With C32G U55G C72A G83A G94U G126U U146A as the variant, how does the “polymerase ribozyme fitness (log ratio)” value read?
Answer: The value was ≤ -4.2.

Question: Which “polymerase ribozyme fitness (log ratio)” value does the source give for C32U C38U U109G here?
Answer: The value was ≤ -4.2.

Question: For C32G U56G A120G U148A, which “polymerase ribozyme fitness (log ratio)” value is on record?
Answer: Its value is ≤ -4.2.

Question: For U33A G58A C96A G152U, which “polymerase ribozyme fitness (log ratio)” value is on record?
Answer: The value was -3.79.

Question: Which “polymerase ribozyme fitness (log ratio)” value does the source give for U31G C35U G62C C108A G133C here?
Answer: The value was ≤ -4.2.

Question: Which “polymerase ribozyme fitness (log ratio)” value does the source give for C32G U78C G81U C85G C116G C118A here?
Answer: Its value is ≤ -4.2.

Question: Which “polymerase ribozyme fitness (log ratio)” value does the source give for U31C C32G C72U C93A A107U G141C C149G G152C here?
Answer: Its value is ≤ -4.2.

Question: For C32G G124A U135A, which “polymerase ribozyme fitness (log ratio)” value is on record?
Answer: The value was ≤ -4.2.

Question: For A30U U44A A52C C76G G80C C87U, which “polymerase ribozyme fitness (log ratio)” value is on record?
Answer: Its value is ≤ -4.2.

Question: Which “polymerase ribozyme fitness (log ratio)” value does the source give for C32G G48U G68A U134A U145C here?
Answer: Its value is ≤ -4.2.

Question: For U33C A47C G59C C76A G92U U104C C116A, which “polymerase ribozyme fitness (log ratio)” value is on record?
Answer: The value was ≤ -4.2.

Question: Which “polymerase ribozyme fitness (log ratio)” value does the source give for A30G G83A A91C C99G A147C here?
Answer: Its value is ≤ -4.2.

Question: With C32A G84A as the variant, how does the “polymerase ribozyme fitness (log ratio)” value read?
Answer: Its value is -3.57.

Question: Which “polymerase ribozyme fitness (log ratio)” value does the source give for U33C G68A A73C G81A U148A here?
Answer: The value was ≤ -4.2.

Question: With U33A G59U U61A as the variant, how does the “polymerase ribozyme fitness (log ratio)” value read?
Answer: Its value is ≤ -4.2.

Question: With A30U A52G G58A G70U C79U G83A C93U as the variant, how does the “polymerase ribozyme fitness (log ratio)” value read?
Answer: Its value is ≤ -4.2.

Question: With U31G A37G G58U A64U C69U C99U G117A as the variant, how does the “polymerase ribozyme fitness (log ratio)” value read?
Answer: The value was ≤ -4.2.

Question: For C32G G88A, which “polymerase ribozyme fitness (log ratio)” value is on record?
Answer: The value was ≤ -4.2.

Question: Which “polymerase ribozyme fitness (log ratio)” value does the source give for U33C A47G C63A A64U A89G C99U C103G C116A C125G G143U here?
Answer: The value was ≤ -4.2.

Question: Which “polymerase ribozyme fitness (log ratio)” value does the source give for C32U A41U G59C A89C G92A A147C here?
Answer: The value was ≤ -4.2.

Question: For C32G U77A C85A G112U U135G G143A, which “polymerase ribozyme fitness (log ratio)” value is on record?
Answer: The value was ≤ -4.2.

Question: With C32G G42A A47C U53A U61C A115G as the variant, how does the “polymerase ribozyme fitness (log ratio)” value read?
Answer: The value was ≤ -4.2.

Question: With U33A A41G A47C C96A G140A as the variant, how does the “polymerase ribozyme fitness (log ratio)” value read?
Answer: The value was ≤ -4.2.

Question: With U33C A52G C79A G112U as the variant, how does the “polymerase ribozyme fitness (log ratio)” value read?
Answer: Its value is ≤ -4.2.

Question: With C32U G50A A52G G58A C87G C118G as the variant, how does the “polymerase ribozyme fitness (log ratio)” value read?
Answer: Its value is ≤ -4.2.

Question: With C32G C79A C93G A98G A106C U109C as the variant, how does the “polymerase ribozyme fitness (log ratio)” value read?
Answer: The value was ≤ -4.2.

Question: With A30G U33A U55A A91C C132U A142U as the variant, how does the “polymerase ribozyme fitness (log ratio)” value read?
Answer: The value was ≤ -4.2.

Question: For U31G A37C U44G G48U C69U G71A G94A A113G C114U U151C, which “polymerase ribozyme fitness (log ratio)” value is on record?
Answer: Its value is ≤ -4.2.

Question: With C32U U148G as the variant, how does the “polymerase ribozyme fitness (log ratio)” value read?
Answer: Its value is ≤ -4.2.

Question: With C32G G58U G84U C149A as the variant, how does the “polymerase ribozyme fitness (log ratio)” value read?
Answer: The value was ≤ -4.2.

Question: Which “polymerase ribozyme fitness (log ratio)” value does the source give for U31G U33G G62C C93U here?
Answer: The value was ≤ -4.2.

Question: With U33C A49U G70A G80C as the variant, how does the “polymerase ribozyme fitness (log ratio)” value read?
Answer: The value was ≤ -4.2.

Question: With C32G C54U C79A C129U U148C A150C as the variant, how does the “polymerase ribozyme fitness (log ratio)” value read?
Answer: Its value is ≤ -4.2.

Question: With U33G G83A G88U G136C as the variant, how does the “polymerase ribozyme fitness (log ratio)” value read?
Answer: The value was ≤ -4.2.

Question: With C32A G58C A64U C85G as the variant, how does the “polymerase ribozyme fitness (log ratio)” value read?
Answer: Its value is ≤ -4.2.

Question: Which “polymerase ribozyme fitness (log ratio)” value does the source give for U31A A49G C105U here?
Answer: Its value is -0.707.

Question: Which “polymerase ribozyme fitness (log ratio)” value does the source give for C32G C57U C95U A142C U144G here?
Answer: Its value is ≤ -4.2.

Question: For U33G A52U G59C A91G, which “polymerase ribozyme fitness (log ratio)” value is on record?
Answer: Its value is ≤ -4.2.

Question: With C32G A49C C118U as the variant, how does the “polymerase ribozyme fitness (log ratio)” value read?
Answer: Its value is ≤ -4.2.

Question: With U31A A40U C85G A106G G140A C149A as the variant, how does the “polymerase ribozyme fitness (log ratio)” value read?
Answer: Its value is ≤ -4.2.

Question: Which “polymerase ribozyme fitness (log ratio)” value does the source give for U31A C35U A49C U53A U78G C93A G140C A150U here?
Answer: The value was ≤ -4.2.
